Laboratory results reported in patent US8883841B2, “Oncogenic ras-specific cytotoxic compound and methods of use thereof” (The Board of Regents of the University of Texas System, priority 2005, dated 2014).

Legend:
SK-OV-3 = test: NCI in-vitro testing, SK-OV-3 (Ovarian Cancer)
HOP-92 = test: NCI in-vitro testing, HOP-92 (Non-Small Cell Lung Cancer)
SK-MEL-5 = test: NCI in-vitro testing, SK-MEL-5 (Melanoma)
SK-MEL-2 = test: NCI in-vitro testing, SK-MEL-2 (Melanoma)
SF-295 = test: NCI in-vitro testing, SF-295 (CNS Cancer)
EKVX = test: NCI in-vitro testing, EKVX (Non-Small Cell Lung Cancer)
SN12C = test: NCI in-vitro testing, SN12C (Renal Cancer)
MDA-MB-435 = test: NCI in-vitro testing, MDA-MB-435 (Breast Cancer)
LOX IMVI = test: NCI in-vitro testing, LOX IMVI (Melanoma)
MCF7 = test: NCI in-vitro testing, MCF7 (Breast Cancer)
[1] = Log10 Concentration −4.0 (Molar)
[2] = Log10 Concentration −5.0 (Molar)
[3] = Log10 Concentration −6.0 (Molar)
[4] = Log10 Concentration −7.0 (Molar)
[5] = Log10 Concentration −8.0 (Molar)

OCc1cn(Cc2ccc(Cl)cc2)c2ccccc12 [Oncrasin K060, 1H-Indole-3-methanol, 1-[(4-chlorophenyl)methyl]-]
Mean Optical Densities (SK-OV-3; [1]): 0.456 | Mean Optical Densities (SK-OV-3; [2]): 0.645 | Mean Optical Densities (SK-OV-3; [3]): 0.904 | Mean Optical Densities (SK-OV-3; [4]): 1.035 | Mean Optical Densities (SK-OV-3; [5]): 1.084 | Mean Optical Densities (HOP-92; [1]): 0.175 | Mean Optical Densities (HOP-92; [2]): 0.573 | Mean Optical Densities (HOP-92; [3]): 0.785 | Mean Optical Densities (HOP-92; [4]): 0.763 | Mean Optical Densities (HOP-92; [5]): 0.816 | Mean Optical Densities (SK-MEL-5; [1]): 0.010 | Mean Optical Densities (SK-MEL-5; [2]): 0.855 | Mean Optical Densities (SK-MEL-5; [3]): 1.339 | Mean Optical Densities (SK-MEL-5; [4]): 1.602 | Mean Optical Densities (SK-MEL-5; [5]): 1.633 | Mean Optical Densities (SK-MEL-2; [1]): 0.287 | Mean Optical Densities (SK-MEL-2; [2]): 0.640 | Mean Optical Densities (SK-MEL-2; [3]): 1.172 | Mean Optical Densities (SK-MEL-2; [4]): 1.285 | Mean Optical Densities (SK-MEL-2; [5]): 1.341 | Mean Optical Densities (SF-295; [1]): 0.608 | Mean Optical Densities (SF-295; [2]): 0.991 | Mean Optical Densities (SF-295; [3]): 1.603 | Mean Optical Densities (SF-295; [4]): 1.964 | Mean Optical Densities (SF-295; [5]): 2.364 | Mean Optical Densities (EKVX; [1]): 0.470 | Mean Optical Densities (EKVX; [2]): 1.526 | Mean Optical Densities (EKVX; [3]): 1.662 | Mean Optical Densities (EKVX; [4]): 1.828 | Mean Optical Densities (EKVX; [5]): 1.511 | Mean Optical Densities (SN12C; [1]): 0.308 | Mean Optical Densities (SN12C; [2]): 1.234 | Mean Optical Densities (SN12C; [3]): 1.874 | Mean Optical Densities (SN12C; [4]): 2.047 | Mean Optical Densities (SN12C; [5]): 2.103 | Mean Optical Densities (MDA-MB-435; [1]): 0.297 | Mean Optical Densities (MDA-MB-435; [2]): 1.535 | Mean Optical Densities (MDA-MB-435; [3]): 1.739 | Mean Optical Densities (MDA-MB-435; [4]): 1.793 | Mean Optical Densities (MDA-MB-435; [5]): 1.811 | Mean Optical Densities (LOX IMVI; [1]): 0.053 | Mean Optical Densities (LOX IMVI; [2]): 0.814 | Mean Optical Densities (LOX IMVI; [3]): 2.024 | Mean Optical Densities (LOX IMVI; [4]): 2.007 | Mean Optical Densities (LOX IMVI; [5]): 2.124 | Mean Optical Densities (MCF7; [1]): 0.340 | Mean Optical Densities (MCF7; [2]): 0.509 | Mean Optical Densities (MCF7; [3]): 0.551 | Mean Optical Densities (MCF7; [4]): 1.146 | Mean Optical Densities (MCF7; [5]): 1.653
